Assays:
Cdc42 = biological target: T1, Cdc42 (Homo sapiens, UniProt P60953); assay: G-trap assay validation, active Cdc42 in HeLa cells; assay type: cell-based; settings: HeLa cells treated with CID2950007 (ML141)
T1 construct: endogenous in cells; host or cells: HeLa (ATCC)
Protocol: For each effector assay, 10,000 beads were added to 50 μg of protein in 100 μl of cell lysate in RIPA buffer. […] To minimize reporter antibody crosstalk, samples were split into separate fractions after lysate binding to the multiplex bead sets and then individually probed with a reporter antibody specific for a single target GTPase per fraction.
Cdc42, Rac1 and RhoA are among the most well characterized members of the Rho subfamily of GTPases. They are known for orchestrating cytoskeletal reorganization dynamics (filamentous actin and myosin 2) and crosstalk to antagonize each other's activities [25B; 26B; 27B; 28B]. The availability of specific regulators of their activity makes these GTPases a suitable platform to test the applicability of our G-trap assay. HeLa cells were treated with the following signaling regulators: 1) NSC23766, a specific inhibitor of Rac1 interaction with its two upstream GEFs Tiam1 and Trio (Trio is also identified as a RhoA target [29B: 30B]), 2) CID2950007, a novel Cdc42 specific inhibitor [6B] commercially sold as ML141, and 3) calpeptin, an upstream activator of RhoA [31B]. […] Readings were taken at 3 min and 20 min after stimulation. The data were corrected for nonspecific binding by subtracting the fluorescent antibody binding to the GST-conjugated control beads from the antibody binding to GST-effector bearing beads. […]

RhoA = assay type: cell-based, monkey
Rap1 = assay type: cell-based, monkey

T1 sequence (P60953 whole entry): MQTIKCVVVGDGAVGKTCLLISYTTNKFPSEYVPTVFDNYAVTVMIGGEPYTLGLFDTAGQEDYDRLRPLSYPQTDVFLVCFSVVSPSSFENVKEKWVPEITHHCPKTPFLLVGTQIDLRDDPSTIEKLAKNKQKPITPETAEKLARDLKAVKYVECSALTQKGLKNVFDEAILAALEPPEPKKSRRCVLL

For `COc1ccc(C2CC(c3ccccc3)=NN2c2ccc(S(N)(=O)=O)cc2)cc1` (stereo not shown) [CID2950007], the Cdc42 activity (Cdc42) was “total inhibition of Cdc42”.
For `CC1CNc2c(cccc2S(=O)(=O)N[C@@H](CCCNC(=N)N)C(=O)N2CC[C@@H](C)C[C@@H]2C(=O)O)C1` (stereo partly shown) [argatroban], the “RhoA GTP activation in argatroban-treated plasma samples” value (RhoA) was “RhoA GTP activation was primarily due to thrombin” and the “Rap1 activation in argatroban-treated plasma samples” value (Rap1) was “refractory”.
With `CCCC[C@@H](C=O)NC(=O)[C@H](CC(C)C)NC(=O)OCc1ccccc1` [calpeptin] the “actin stress fiber formation” value (Vero E6 cells) was “RhoA induced F-actin stress fibers formed”.

From US10962541B2 (priority 2014, dated 2021)
